The target in this assay is T1, active TGFβ1 (human, UniProt P01137 part only).
T1 construct: mature; also called TGFb1; human active TGFβ1
Description: blocking of active TGFβ1 (1 ng/mL) in solution, 30 min in PBS; free TGFβ1 by ELISA.

Data on 1 molecule can be found in patent US20220127332A1 (CURA THERAPEUTICS, published 2022).

Sequence of active TGFβ1 (P01137 279-390 limits assumed): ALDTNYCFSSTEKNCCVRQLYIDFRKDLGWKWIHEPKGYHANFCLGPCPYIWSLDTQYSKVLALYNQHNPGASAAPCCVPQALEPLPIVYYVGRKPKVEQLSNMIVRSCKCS

B1: bFISTv3 (bivalent FIST; fusion of an IL-2 polypeptide, a first sTBRII receptor polypeptide and a second sTBRII receptor polypeptide) (other)
chain: [omitted - about 150 residues]KSDVEMEAQKGEMICVTCNRTAHPLKHVNNDMIVTDNNGAVKLPQLCKFCDVRFSTCDNQKSCMSNCSITSICEKPQEVCVAVWRKNDENITLETVCHDPKLTYHGFTLEDAASPKCVMKEKKKPGETFFMCSCSSDECNDNIIFIPPHVQKSVNNDMIVTDNNGAVKLPQLCKFCDVRFSTCDNQKSCMSNCSITSICEKPHEVCVAVWRKNDENITLETVCHDPKLTYHGFTLEDAASPKCVMKEKKKPGETFFMCSCSADECNDNIIFSEDYNTSNPD
As usually defined, the IC50 is the concentration needed to halve the response being measured. Molecule B1 gave a half-inhibitory concentration (IC50) of 9 pM.
